B1: LINE1-mini (parent)
chain: GGCAGAGCUCAACACAGCGUGGCAAAGUGGCUGUGGCUAGACUGCC

The record followed here is the RNAGym collection of RNA variant scans (doi:10.7554/elife.90254).

Read counts are not given, so values of variants with three or more changes are uncertain.

The series covers variants of B1. In words: self-cleavage, relative activity (ratio to wild type); higher = more cleavage; in vitro, sequencing; the parent is a self-cleaving ribozyme.
With GGCAGAGCUCAACACCGCGUGGCAAAGUGGCUGGGGCUAGACUAAC, the self-cleavage turned out to be 0.08. For GGCAGAGCUCAACACCGGGUGGCAAAGUGGCUGUGGCUAGAGUGCC the value was 0.04; for GGCAGAGCUCAACACGGCGUGGCAAAGUAGCUGUGGCUAGAAUGCC, 0; for GGCAGAGCUCAACACGGCGUGACAACGUAGCUGUGGCUAGUCUGCC, 0.21.

For GGCAGAGCUCAACACCGCGUGGCGAAGUGGCUGUGGCUAGACUACC, the self-cleavage was 0.01.

GGCAGAGCUCAACACCGCGUGGCAAAAUUUCUGCGGCUAGACUGCC: the self-cleavage was 0.1. Take GGCAGAGCUCAACACGGUGUGGCAAAGUGGCAGUGGCUAGACUGCC: the self-cleavage amounted to 0.03. Regarding GGCAGAGCUCAACACGGCUUGGCAAAGUGGCUGUGGAUAGACUGCC, the self-cleavage turned out to be 0.02.

Regarding GGCAGAGCUCAACACGGCGUGGAAAAGUGGGUGUGGUUAGACCGCC, the self-cleavage stood at 0. As to GGCAGAGCUCAACACCGCGCGGCAAAGUGGCUGUGGCUUGACUGCC, the self-cleavage worked out at 0.06. For the variant GGCAGAGCUCAACACCGAGCGGCAAAGUGGCUGUGGCUAGACUGCC, the self-cleavage turned out to be 0.14. With GGCAGAGCUCAACACCGCGUGGCAAAGUGGCUGUUGAUCGACUGUC, the self-cleavage turned out to be 0. Consider GGCAGAGCUCAACACCGAGGGGCGAAGUAGCUGUGGCUAGACUGCC, for which the self-cleavage is 0.06.

Take GGCAGAGCUCAACACGGCGUGGCACAGUGUCUGUGGCUGGACUGCC: the self-cleavage worked out at 0.

Regarding GGCAGAGCUCAACACCGCGUGGCAAAGUGGCUGUGGCUAGAUUGCA, the self-cleavage came out at 0.05. Take GGCAGAGCUCAACACCGCGUGGCAAGGUGGCUGUGGCUAGACCGCC: the self-cleavage worked out at 0.01. With GGCAGAGCUCAACAUAGCGUGGCAAAGUGGCUGAGUCUAGACUGCC the figure was 0.02; with GGCAGAGCUCAACACCACGUAGCAAAGUGGCUGUGGCUAGACUGCU, 0.11.

As for GGCAGAGCUCAACACGGAGUUGCAAAGUGGCUGUGGCUAGACUGCA, the self-cleavage amounted to 0.02.

In the case of GGCAGAGCUCAACACGGCGUGGCAAAGUGGAUGCGGCUAGACUCCC, the self-cleavage was 0.01. For GGCAGAGCUCAACACCGCGUCCCAGAGUGGGUGUGGCUAGACUGCC, the self-cleavage was found to be 0.02. As for GGCAGAGCUCAACACGGCGUGGCAAAGUAGCUGUGGUUAGAAUGCC, the self-cleavage was found to be 0.01. On to GGCAGAGCUCAACACGCCGUGGCAAAGUGGCUGUGGCUAGCCUGCA, for which the self-cleavage came to 0.06. Take GGCAGAGCUCAACACCCCCUGUCAAAGUCGCUGUGUCUAGACUGCC: the self-cleavage is 0.05. Consider GGCAGAGCUCAACACCGCGUGGCAAAGUGGCUGUGGCUAAAUUGGC, for which the self-cleavage came to 0.05. For GGCAGAGCUCAACACCGCGUGGCAACGUGGCUAUGGCUAGACUGUC the value was 0.03. As to GGCAGAGCUCAACACGGCGUGAUAAAGUGGCUGUGGCUAGAGUGCC, the self-cleavage turned out to be 0.02.

With GGCAGAGCUCAACACGGCGUGGCUAAGUGGCUGUGGGUAGACUGCC, the self-cleavage was found to be 0.03.

As to GGCAGAGCUCAACACCGCGUGGCAAAGUGGCUGUAGCUAGACUGUC, the self-cleavage amounted to 0.07.

Take GGCAGAGCUCAACACGGCGUGGCAAAGUGGCUGUGGCUAGAGUUCC: the self-cleavage amounted to 0.09. As to GGCAGAGCUCAACACGGCGUGGUAAAGAGGCUGUUGCUAGACUGCC, the self-cleavage came to 0.06. For the variant GGCAGAGCUCAACACCGCGUGGCAACGUCGACGUGGCUAGACCGCC, the self-cleavage was 0.09.

For GGCAGAGCUCAACACCACGUGGCAAAGUGGCUGUGGCUGGACUGCC, the self-cleavage was 0.03.

Consider GGCAGAGCUCAACACGGCGUGGCAAAGUGGCUGUGGAUAGUCUGCC, for which the self-cleavage is 0.03. As for GGCAGAGCUCAACACCGCGUGGCAAAGUGGCUGGCGCUAGACUGCC, the self-cleavage was 0.01. With GGCAGAGCUCAACACCGCGUGGCAAAGUGGCUGUGGCUCUAGUGCC the figure was 0.06; with GGCAGAGCUCAACACCGGGUGGCAAAGAGGCUGUGGCUAGACUGCC, 0.09; with GGCAGAGCUCAACACGGCGUGGCCAAGUGGGCGUGGCUAAACUGCC, 0.03. For GGCAGAGCUCAACACGGCGUGACUGAGUGGCUGUGGCUAGAGUGCC the value was 0. GGCAGAGCUCAACACGGCGUGACAAUGUGGCUGUGGCUAGACUGCC: the self-cleavage is 0.49. Regarding GGCAGAGCUCAACACCGCGUGGCAAAGUUGCUGUGCCUAGACUGCC, the self-cleavage turned out to be 0.05. GGCAGAGCUCAACACGGCGUGGCAAAGUGGAUGUUGCUAGACUGCC: the self-cleavage is 0.12. On to GGCAGAGCUCAACACGGCGUGUUAAAGUGCAUCAGUCUAGACUGCA, for which the self-cleavage is 0. Consider GGCAGAGCUCAACACGGUGCGGCAAAGUGGCUGUUGCUAGCCUGCC, for which the self-cleavage was determined as 0.02. In the case of GGCAGAGCUCAACACCGCGUAGCAAAGUCGCUGUGGCUAGACUGCC, the self-cleavage was found to be 0.92. Turning to GGCAGAGCUCAACACGGCGUGGCAAAGUUGCUGUGUCUAGACUGCC, the self-cleavage was 0.1. For GGCAGAGCUCAACACGGCGUGGCGAAGUGGCUCUGGCUAGACUGCC the value was 0.01. In the case of GGCAGAGCUCAACACGGCGUAGCAAAGUGGCUGUGGCUAGACAGCC, the self-cleavage was determined as 0.09. For the variant GGCAGAGCUCAACACGGCGUAGCAAAGUGGCUGUGGCUAGACUGAC, the self-cleavage was found to be 0.2. With GGCAGAGCUCAACACGGCGUGGCGUAGUGGCUGUGGCUAGACUGCA the figure was 0.05; with GGCAGAGCUCAACACCGCGUGCCAAAGUGGCUGGGGCUAGACUGCC, 0.02. Regarding GGCAGAGCUCAACACGGCUUGGCAAAGUGGCUGUGGCUAGACUGCA, the self-cleavage stood at 0.18.

As to GGCAGAGCUCAACACCGGGUGGCAAAGUGGCUGUGGAUAGACUGCC, the self-cleavage was determined as 0.02. For the variant GGCAGAGCUCAACACCGCGCGACAAAGUGGCUGUGGCUAGACUGCC, the self-cleavage was 0.19. Take GGCAGAGCUCAACACCUCGUGGCAAAGUGGCUGUGGCUGGACUGCC: the self-cleavage is 0.03. Take GGCAGAGCUCAACACCGCGUGGCAAAGUGGCUAUGGCUCGAGUGCC: the self-cleavage is 0.03.
